“And” between values parts separate entries of the source, which are not always exact repeats. Equal entries are not always repeated. About 50,000 (12%) of roughly 420,000 compounds were called active. Inconclusive results, whose numbers are uncertain, are shown with a selection of clear calls. The call rests on the fitted dose curve; in most records, active means well fitted inhibition curve with a large enough effect; inconclusive means small, poorly fitted or top-dose-only effect; inactive means flat fitted curve, though single readings scatter. Potencies beside an inconclusive call are fits to weak or partial responses and may not hold up. Where a structure was tested more than once in an assay, its records may differ in their call.
Assay: qHTS for Inhibitors of human tyrosyl-DNA phosphodiesterase 1 (TDP1): qHTS in cells in presence of CPT; further: nearly all actives have a fitted effect of over 55% in size
Settings: chicken DT40 Tdp1-/-;hTDP1 cells + 20 nM CPT, ATP luminescence, 48 h; activity change, negative = growth inhibition: at 46.2 µM (top of the series) unless noted
Outline: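 Cell growth measured by CellTiter-Glo luminescence after a minimum 48 h, 37 C compound exposure with 20 nM CPT in Tdp1-knockout DT40 cells stably expressing hTDP1, seeded 400/well; qHTS titration format.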
On the % scale 0 is the no-effect control and ±100 the full control effect; potency means the concentration at half of the fitted maximal effect; tags describe the fitted curve by direction and shape.

| SMILES | Potency | activity change, negative = growth inhibition |
| --- | --- | --- |
| CCn1ccc2cc(S(=O)(=O)N3CCC(C(=O)NCc4cccc(Cl)c4)CC3)ccc21 | inconclusive: 29.1 µM [inhibitor, single point] |  |
| C=CCn1c(O)c(N=NC(=O)CNC(=O)c2ccco2)c2ccccc21 | active: 6.51 µM |  |
| CC(=O)Nc1ccc(NC(=O)[C@@H](NC(=O)c2cccc(C)c2)C(C)C)cc1 |  | inactive: 6.73% |
| Cc1cc(C(=O)Cn2nnc3ccccc3c2=O)c(C)n1-c1ccccc1F | inconclusive: 29.1 µM [inhibitor, single point] |  |
| CCC(=O)Nc1ccc(S(=O)(=O)Nc2c(NC)c3ccccc3oc2=O)cc1 | inconclusive: 29.1 µM [inhibitor, single point] |  |
| O=S1(=O)CCOCCCN1Cc1ccccc1Br | inactive and active: 29.1 µM |  |
| Cc1ccc(-n2c(-c3cnccn3)n[nH]c2=S)c(Br)c1 | inconclusive: 4.11 µM [inhibitor, single point] |  |
| COc1ccc2cc3cc(C(=O)N4CC(C)CC(C)C4)oc3nc2c1 (stereo not given) |  | inactive: -7.88% |
| CN(C)c1nc(N(C)C)nc(N2CC(=O)N(c3ccccc3)C2=N)n1 |  | inactive: -22.8% |
| COC(=O)c1ccc(/C=N/NS(=O)(=O)c2cc(C)ccc2C)cc1 | inconclusive: 16.4 µM [inhibitor, partial curve] |  |
| COc1ccccc1/C=C/C=N/N1CCN(Cc2ccc(Cl)cc2)CC1 | inconclusive: 35.5 µM [inhibitor, single point] |  |
| Cc1nc2ccccc2nc1-c1ccc([N+](=O)[O-])cc1 | inconclusive: 25.9 µM [inhibitor, single point] |  |
| CC1(Cc2ccccc2OC(F)(F)F)C(=O)Nc2ccc(S(=O)(=O)NC3CCCCC3)cc21 (stereo not given) | inconclusive: 29.1 µM [inhibitor, single point] |  |
| CCN(CC)C(=O)C1=C(C)N(CCCOC)C(=O)C(CC(=O)NCCCCc2ccccc2)C1 (stereo not given) |  | inactive: -2.29% |
| Cc1cccc(-n2ncc(C(=O)N3CCN(Cc4ccccc4)CC3)c2C2CCN(C(=O)OC(C)(C)C)CC2)c1 | active: 16.4 µM |  |
| CCOc1ccc(N(C)S(=O)(=O)c2c(C(=O)N3CCC(C)CC3)c(C)n(C)c2C)cc1 | inconclusive: 29.1 µM [inhibitor, single point] |  |
| CCOc1cc(CNC2CCCC2)cc(Cl)c1OCc1ccc(F)cc1 | active: 14.6 µM |  |
| O=C(COc1ccc(Br)cc1)Nc1cc(S(=O)(=O)N2CCCCC2)ccc1N1CCCCC1 | inconclusive: 23.1 µM [inhibitor, single point] |  |
| COc1ccc(Cl)cc1NS(=O)(=O)c1cccc(C(=O)NCC(c2ccco2)N(C)C)c1 (stereo not given) | inconclusive: 20.6 µM [inhibitor, single point] |  |
| O=C(Oc1ccc(Br)cc1C(=O)/C=C/c1ccccc1F)c1ccco1 | active: 20.6 µM |  |
| Cc1ccc(C)c(NC(CC(=O)c2ccccc2)C(=O)OCC(=O)c2cccs2)c1 (stereo not given) | active: 18.4 µM |  |
| COC(=O)c1ccc2c(=O)[nH]c(CCl)nc2c1 | active: 11.6 µM |  |
| CCOc1ccccc1NC(=O)N1c2ccccc2Sc2ccccc21 | inconclusive: 29.1 µM [inhibitor, single point] |  |
| COc1ccccc1C(=O)NCCC(=O)N1CCN(c2ccccc2Cl)CC1 | inconclusive: 29.1 µM [inhibitor, single point] |  |

| SMILES | Potency | activity change, negative = growth inhibition |
| --- | --- | --- |
| COc1ccc(Cn2c(CCC(=O)Nc3ccc(C)cc3)nc3cccnc32)cc1 | inconclusive: 29.1 µM [inhibitor, single point] and inconclusive: 14.6 µM [inhibitor, single point] |  |
| Cc1ccc(NC(=O)Cn2nnc3sc4c(c3c2=O)CCC(C)C4)cc1 (stereo not given) | inconclusive: 29.1 µM [inhibitor, single point] |  |
| CCN1CC(CNCc2cn(-c3ccc(OC)cc3)nc2-c2ccccc2Cl)CC1=O (stereo not given) | inconclusive: 29.1 µM [inhibitor, single point] |  |
| Cc1cc(N2CCOCC2)ncc1[N+](=O)[O-] |  | inactive: -11.3% |
| COC(=O)C1C(c2ccc(Br)cc2)Nc2nnc(C(F)(F)F)n2C1(C)O (stereo not given) |  | inactive: -0.102% |
| CCn1c(CNC(C)=O)nnc1SCC(=O)c1ccc(Br)cc1 |  | inactive: -20.8% |
| CC1Cc2ccccc2N1C(=O)CN1CCN(S(=O)(=O)c2cccs2)CC1 (stereo not given) | inconclusive: 25.9 µM [inhibitor, single point] |  |
| Cc1ccc(S(=O)(=O)N(C)C)cc1NC(=S)Nc1cccc2ccccc12 | inconclusive: 18.4 µM [inhibitor, single point] |  |
| COC(=O)CCCn1cc(CN2CC(N3CCN(C)CC3)CS2(=O)=O)nn1 (stereo not given) |  | inactive: -1.11% |
| CC1CCCN(CC(=O)Nc2ccc(S(=O)(=O)N3C(C)CCCC3C)cc2)C1 (stereo not given) | inconclusive: 29.1 µM [inhibitor, single point] |  |
| CCOc1ccc(NS(=O)(=O)c2cc(NC(=O)CCNC(=O)c3ccco3)ccc2OC)cc1 |  | inactive: -18.9% |
| COc1cccc(Cn2nc(C(=O)O)c3ccccc3c2=O)c1 | inconclusive: 29.1 µM [inhibitor, single point] |  |
| CCOC(=O)c1ccc(CC(=O)c2ccc(O)c(O)c2O)o1 | inconclusive: 29.1 µM [inhibitor, single point] |  |
| COc1ccc(CCNS(=O)(=O)c2ccc3c(c2)CC(C)N3C(=O)C2CC2)cc1OC (stereo not given) | inconclusive: 29.1 µM [inhibitor, single point] |  |
| Cc1ccc(S(=O)(=O)N2CCN(C(=O)COC(=O)c3c(C)noc3C)CC2)c(C)c1 |  | inactive: -14.3% |
| Cc1ccccc1Cc1c(C)nc2c(C(=O)N3CCN(Cc4ccc5c(c4)OCO5)CC3)cnn2c1C | inconclusive: 16.4 µM [inhibitor, partial curve] |  |
| O=C(OCC(=O)N1CCN(C(=O)COC(=O)c2ccc(O)cc2O)CC1)c1ccc(O)cc1O |  | inactive: -28.3% |
| COc1ccc(OCC(=O)Nc2ccccc2N2CCCCC2)cc1 | active: 1.64 µM |  |
| CCN1CCN(S(=O)(=O)c2ccc(Cl)c(C(=O)N(C)CCOc3ccc(Cl)cc3)c2)CC1 | active: 18.4 µM |  |
| O=C(CSc1ncc(-c2ccccc2)[nH]1)Nc1ccc(F)cc1F | inconclusive: 29.1 µM [inhibitor, single point] |  |
| COc1ccc(CCNC(=O)CSc2cn(CCNC(=O)c3ccccc3F)c3ccccc23)cc1OC | inconclusive: 29.1 µM [inhibitor, single point] |  |
| CC(C)N1CCc2c(sc(NC(=O)CN3C(=O)c4ccccc4C3=O)c2C(N)=O)C1 |  | inactive: -1.91% |
| COc1ccc(S(=O)(=O)/N=C2/NC(=O)/C(=C\c3ccco3)S2)cc1 | inconclusive: 20.6 µM [inhibitor, single point] |  |
| Cn1c(CSCc2ccc(F)cc2)nnc1SCC(=O)N1CCN(c2ccccc2)CC1 | inconclusive: 23.1 µM [inhibitor, single point] |  |

| SMILES | Potency | activity change, negative = growth inhibition |
| --- | --- | --- |
| CCCCOC(=O)Cn1nnc2sc(-c3ccccc3)cc2c1=O |  | inactive: -13.7% |
| CCCc1nc2c(ccc3ccccc32)cc1CC |  | inactive: -20.7% |
| Cc1ccc(Cn2c(N3CCNCC3)nc3c2c(=O)[nH]c(=O)n3C)cc1 | inconclusive: 29.1 µM [inhibitor, single point] |  |
| S=C(c1ccco1)N1CCOCC1 | inconclusive: 29.1 µM [inhibitor, single point] |  |
| CN(C)C(=O)NC(Nc1ccc(Cl)cc1Cl)C(Cl)(Cl)Cl (stereo not given) | inconclusive: 23.1 µM [inhibitor, single point] |  |
| Cc1ccc(NC(=O)C(=O)NCCCN2CCCC2=O)cc1 | inconclusive: 2.06 µM [inhibitor, partial curve] |  |
| O=C(N/N=C\c1ccc([N+](=O)[O-])o1)C1COc2ccccc2O1 (stereo not given) | active: 7.31 µM |  |
| Cc1ccc(C=Cc2ccccn2)cc1 |  | inactive: -16.9% |
| CCOc1ccc(C2=C(C(=O)CC)Sc3nncn3N2C(=O)CC)cc1 | active: 16.4 µM |  |
| Cc1ccc(S(=O)(=O)N2CCCCC2CCNC(=O)C(=O)NCCc2ccco2)cc1 (stereo not given) | active: 2.91 µM |  |
| COc1ccc(/C(N)=N/OC(=O)N2CCOCC2)cc1 | inconclusive: 23.1 µM [inhibitor, partial curve] |  |
| CCn1cc(Cl)c(C(=O)Nc2cccc(CN3CCOCC3)c2)n1 |  | inactive: 20.8% |
| Cc1c(C(=O)NCCCN2CCOCC2)sc2ncnc(N3CCN(c4ccccc4)CC3)c12 | active: 16.4 µM |  |
| Cc1ccc(-c2nnn(CCC(=O)N3CCCCC3C)n2)cc1 (stereo not given) | inconclusive: 7.31 µM [inhibitor, partial curve] |  |
| Cc1ccc(S(=O)(=O)NCc2ccco2)cc1C | inconclusive: 16.4 µM [inhibitor, single point] |  |
| CC(C)C[C@@H](CN1CCC[C@H]1CN1C(=O)C(=O)NC[C@@H]1Cc1ccc(O)cc1)N1C[C@H](Cc2ccc(O)cc2)N(CC2CCCCCC2)C(=O)C1=O | inconclusive: 29.1 µM [inhibitor, single point] |  |
| COC(=O)c1ccc(Cl)cc1N(Cc1c(F)cccc1Cl)S(C)(=O)=O | inconclusive: 23.1 µM [inhibitor, partial curve] |  |
| CCOC(=O)c1c(C)[nH]c(C(=O)COC(=O)[C@H](C)NC(=O)c2ccccc2Cl)c1C |  | inactive: -7.92% |
| Clc1ccc(C(Cn2ccnc2)OCc2ccsc2Cl)c(Cl)c1 (stereo not given) | inconclusive: 29.9 µM [inhibitor, single point] |  |
| O=c1[nH]c2cccc(Cl)c2n(CCNc2ncc(C(F)(F)F)cc2Cl)c1=O | inconclusive: 29.1 µM [inhibitor, single point] |  |
| CCc1ccccc1N1C(=O)N(CC(=O)c2ccc(Cl)cc2)c2ccccc2S1(=O)=O | inconclusive: 11.6 µM [inhibitor, partial curve] |  |
| CS(=O)(=O)c1ccc2nc(NC(=O)CN3CCC(Cc4ccccc4)CC3)sc2c1 | inconclusive: 29.1 µM [inhibitor, partial curve, poor fit] |  |

Reference: PubChem BioAssay AID686979 (National Center for Advancing Translational Sciences (NCATS), 2013)
